From publication PMC4336329 (PLoS ONE, 2015)
In all, about 310,000 compounds went through this assay and about 14,000 (4.5%) showed an effect of 50% or more. The effect is printed as a negative number. The list shows a part of the results.

target: human ether-à-go-go-related gene (hERG) potassium channel (human, UniProt Q12809); assay: primary screen, population patch clamp on CHO cells stably expressing hERG
Protocol: Briefly, Chinese hamster ovary (CHO) cells stably expressing the hERG channel were dislodged from tissue culture flasks and dispensed into PPC plates. […] During the recording, background leak currents were estimated by a 100 ms step to -80 mV from an initial holding potential of -70 mV and subtracted from the subsequent current measurement. The campaign was conducted in two phases using slight differences in recording protocol. In the first phase, the initial voltage pulse used a 100 ms step to -30 mV from a holding potential of -70 mV, a 2 s conditioning step to +25 mV, and a 2 s test step to -30 mV. During the second phase of the screen, the potential during the conditioning step was raised to +45 mV. In both phases of the campaign, a secondary voltage pulse was applied using the same parameters as the second phase initial pulse. The initial and secondary pulses were applied in the absence of compound, and upon application of 1 μM and 10 μM test concentrations. […]
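Also: peak tail current of the secondary pulse compared with the same well before compound.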

human ether-à-go-go-related gene (hERG) potassium channel, sequence (Q12809 whole entry, looked up): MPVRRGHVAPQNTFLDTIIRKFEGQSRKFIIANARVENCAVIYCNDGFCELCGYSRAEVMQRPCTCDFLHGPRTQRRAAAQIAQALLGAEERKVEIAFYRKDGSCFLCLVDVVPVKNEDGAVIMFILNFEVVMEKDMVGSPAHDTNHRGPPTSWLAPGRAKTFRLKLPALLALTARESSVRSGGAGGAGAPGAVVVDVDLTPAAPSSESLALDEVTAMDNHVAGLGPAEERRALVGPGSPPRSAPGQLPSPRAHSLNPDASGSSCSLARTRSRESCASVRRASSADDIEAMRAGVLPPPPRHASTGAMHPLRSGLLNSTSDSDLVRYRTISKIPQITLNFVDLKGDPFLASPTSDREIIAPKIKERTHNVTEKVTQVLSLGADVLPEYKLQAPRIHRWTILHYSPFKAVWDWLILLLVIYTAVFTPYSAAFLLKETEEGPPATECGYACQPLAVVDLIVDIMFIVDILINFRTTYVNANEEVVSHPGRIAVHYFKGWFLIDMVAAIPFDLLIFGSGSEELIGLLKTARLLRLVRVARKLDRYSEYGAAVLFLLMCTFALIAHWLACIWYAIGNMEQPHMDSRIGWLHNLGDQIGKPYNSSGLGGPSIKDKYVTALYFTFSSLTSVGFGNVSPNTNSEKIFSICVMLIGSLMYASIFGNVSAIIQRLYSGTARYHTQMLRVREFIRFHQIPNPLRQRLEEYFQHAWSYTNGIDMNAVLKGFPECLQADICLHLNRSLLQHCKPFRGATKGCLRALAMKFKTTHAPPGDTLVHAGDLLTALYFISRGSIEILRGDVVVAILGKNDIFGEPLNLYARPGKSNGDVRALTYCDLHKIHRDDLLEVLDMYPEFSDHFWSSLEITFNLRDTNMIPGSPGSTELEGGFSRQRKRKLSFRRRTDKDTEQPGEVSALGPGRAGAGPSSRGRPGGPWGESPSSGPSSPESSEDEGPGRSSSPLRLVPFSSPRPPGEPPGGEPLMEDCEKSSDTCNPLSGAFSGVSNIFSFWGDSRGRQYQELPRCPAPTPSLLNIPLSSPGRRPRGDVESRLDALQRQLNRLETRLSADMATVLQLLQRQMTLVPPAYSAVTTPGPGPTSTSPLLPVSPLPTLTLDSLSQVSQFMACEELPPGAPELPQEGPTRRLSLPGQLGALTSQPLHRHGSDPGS

Row | Compound | hERG current change (%, negative = inhibition) at 10uM [%]
1 | Cc1ccc(S(=O)(=O)CCSc2nc(C)cc(C)c2C#N)cc1 | 9.37
2 | CCN(C(=O)CSc1nc2cc(S(=O)(=O)N(CC)CC)ccc2o1)C1CCS(=O)(=O)C1 (stereo not drawn) | -8.53
3 | Cc1cc(C)n2nc(C(=O)Nc3ccc4c(c3)OCO4)nc2n1 | -1.25
4 | c1ccc(-c2cc(-c3nnc4n3N=C(c3ccc5ccccc5c3)CS4)[nH]n2)cc1 | -5.45
5 | O=C(Cc1ccccc1)NN1CCCCC1 | 15.7
6 | O=C(OCCN=C1NS(=O)(=O)c2ccccc21)C1CC(=O)N(c2ccc3ccccc3c2)C1 (stereo not drawn) | -15.7
7 | S=c1[nH]nc(COc2ccc(Cl)cc2)n1-c1ccc(Cl)cc1 | 24.8
8 | CCOc1cc(/C=N/NC(=O)c2ccncc2)ccc1OC(=O)c1ccco1 | -27.5
9 | Oc1ccc(-c2[nH]ncc2-c2cnn(-c3ccccc3)c2)c(O)c1 | 2.79
10 | FC(F)(F)c1nnc2ccc(NCc3cccnc3)nn12 | 10.6
11 | CC1(C)N=C(N)N=C(N)N1c1ccccc1.Cl | 16.7
12 | CC(=O)c1sc(NC(=O)C2CCN(c3ncnc4sc(C)c(C)c34)CC2)nc1-c1ccccc1 | 13.7
13 | Cc1ccc(/C=C2\SC(=S)N(CCCC(=O)Nc3ccccc3C(=O)O)C2=O)cc1 | -6.61
14 | Cn1c(=O)[nH]c(=O)c2c1nc(CN1CCOCC1)n2CCCc1ccccc1 | -11.4
15 | CCOC(=O)N1CCC(NC(=O)C2CCCN(C(=O)c3cc4sccc4n3C)C2)CC1 (stereo not drawn) | -5.34
16 | COC(=O)C1=C(c2ccccc2)C[C@@H]2CC[C@H]1N2C(=O)N1CCOCC1 | -1.88
17 | CCOC(=O)c1sc(NC(=O)C2CC(=O)N(c3ccc4c(c3)OCCO4)C2)nc1C (stereo not drawn) | -23.8
18 | CC(=O)Nc1ccc(S(=O)(=O)NCc2cc(=O)n(C)c(=O)n2C)cc1 | 18.5
19 | Cc1cccc(NC(=O)c2ccc(NCC3CCCO3)c([N+](=O)[O-])c2)n1 (stereo not drawn) | 14.2
20 | CCOC(=O)Cc1n[nH]c(=O)c2ccccc12 | 3.11
21 | C=CCC(C(=O)c1ccccc1)[N+](C)(C)CC=C.[Br-] (stereo not drawn) | 24.1
22 | O=C(NCC1CCCO1)C(c1ccc(F)cc1)N(CCCN1CCOCC1)C(=O)c1ccc(-c2ccccc2)[nH]1 (stereo not drawn) | -26.2
23 | CCOc1ccc(OCC)c(NC(=O)C2CCN(c3nn4c(=O)cc(C)nc4s3)CC2)c1 | -30.5
24 | COc1cccc(/C=N/Nc2nnc(C)n2N)c1O.Cl | 12.7
25 | CN1CCN(c2nc(-c3cccc([N+](=O)[O-])c3)nc3ccccc23)CC1 | -48.4
26 | Cc1ccc(NC(=O)CN2CCc3ccccc3C2)cc1 | -30.3
27 | Cc1nnc(NC(=O)c2cc(S(=O)(=O)N(C)C)ccc2N2CCCC2)s1 | -0.793

Row | Compound | hERG current change (%, negative = inhibition) at 10uM [%]
28 | CCOc1ccc(NC(=O)Nc2cc(C(C)C)c(O)cc2C)cc1 | 4.34
29 | COc1ccc(S(=O)(=O)Nc2ccc(S(=O)(=O)N3CCCCC3)cc2)cc1C | -9.27
30 | O=C(Nc1cnn(Cc2ccccc2)c1)c1nc2ncccn2n1 | 6.14
31 | CCc1c(C)nc(N2CCN(c3ccccc3F)CC2)[nH]c1=O | 13.7
32 | C/C(=N\NC(=O)c1cccc(S(=O)(=O)Nc2ccccc2Cl)c1)c1ccc(-n2ccnc2)cc1 | 6.22
33 | Cc1ccc(NC(=S)NC(=O)C2CCC2)cc1C | 4.43
34 | Cc1c(CCOC(=O)C23CC4CC(CC(C)(C4)C2)C3)sc[n+]1CC(=O)c1ccccc1.[Br-] | -26.7
35 | CCCCNC(=S)N1CCn2cccc2C1c1ccc(F)cc1 (stereo not drawn) | -9.58
36 | CC(=O)N1C(=O)N(C)C2C1N(C)C(=O)N2C(C)=O (stereo not drawn) | 12.4
37 | Cc1ccc(NS(=O)(=O)c2cc(C(=O)N3CCN(C)CC3)ccc2C)cc1C | -7.85
38 | CCCN1C2=NS(=O)(=O)CCN2c2ccccc21 | -9.83
39 | Cc1c(C)c(C)c(/C=[N+](/C)[O-])c(C)c1C | 24.1
40 | CCN=C1SC(C(=O)Nc2ccc(Cl)c(Cl)c2)CC(=O)N1CC (stereo not drawn) | 10.9
41 | COc1ccc(C)cc1S(=O)(=O)NC(C)C(=O)NC1CC1 (stereo not drawn) | 11.2
42 | COc1cc(NC(=O)c2ccc([N+](=O)[O-])o2)ccc1NC(=O)c1ccco1 | 4.6
43 | CC(NC(=O)Nc1cccc([N+](=O)[O-])c1)c1ccc2c(c1)OCO2 (stereo not drawn) | 9.68
44 | COc1ccccc1CCN1CCCC(CN(C)C(=O)c2ccoc2)C1 (stereo not drawn) | -51.2
45 | O=C1[C@@H]2C(c3cccnc3)=NO[C@@H]2C(=O)N1c1ccc(Br)cc1 | 16.4
46 | CC(C)COc1ccc(C(=O)N(CC(=O)Nc2ccccc2C(F)(F)F)Cc2ccco2)cc1 | -13.3
47 | O=C(Nc1cc(Br)c(O)c(Br)c1)c1cccc(NC(=O)c2ccco2)c1 | -27
48 | CCOC(=O)c1c(NC(=O)C(C)Sc2cccc[n+]2[O-])sc2c1CCN(Cc1ccccc1)C2 (stereo not drawn) | -33
49 | CC(C)Oc1ccc(N2C(=O)c3ccccc3C2=O)cc1 | 11.3
50 | Cc1cc(SCC(=O)c2ccccc2)n2ncc(-c3ccccc3)c2n1 | -3.63
51 | Clc1ccc(C2CC(c3cccs3)n3ncnc3N2)cc1Cl (stereo not drawn) | -17.3
52 | COc1ccc(NC(C)=O)cc1S(=O)(=O)Nc1ccc(C(=O)N2CCCC2)cc1 | 6.59
53 | Cc1ccc(S(=O)(=O)N(Cc2ccccc2F)C(=O)N2CCN(C)CC2)cc1 | 14
54 | O=C(c1cc(-c2cccnc2)nc2ccc(Cl)cc12)N1CCN(S(=O)(=O)c2cccs2)CC1 | -4.28
